# Data taken from the supplement of paper PMC10126150.
# Values marked as one replicate rest on one cluster of the flow cell; about a third of the high ones do not repeat.
# System: ATP
# Assay: switch fluorescence ratio, 500 uM ATP over buffer (Cy3 cluster intensity, sum of 5 cycles each) (fold (ratio)); higher = stronger signal-on switching upon ATP binding; sequences stand for … in TCGTCGGCAGCGTCAGATGTGTATAAGAGACAGTTTTTTTTTTTTTTTTTTTTTTTTT…TC
# Details: aptamer strand: ATP DNA aptamer (quencher-CACCTGGGGGAGTATTGCGGAGGAAGG + anchor), 100 nM annealed; ATP concentration: 500 uM; one replicate
# Procedure, shortened: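 Between each of five buffer/ATP cycles, the flow-cell was stripped with NaOH and re-annealed. Each cycle imaged Cy3-labelled switching-strand clusters, annealed to 100 nM quencher-labelled ATP aptamer on a modified Illumina MiSeq flow-cell, first in selection buffer and then after 15 min with 500 uM ATP at 22 °C. The fluorescence ratio is summed target-cycle over summed buffer-cycle Cy3 intensity per cluster, averaged per switch-domain sequence, with clusters outside 100-1000 RFU excluded.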
# 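Note: ATP exposure 15 min at 22 °C before imaging.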
row,Sequence,switch fluorescence ratio
1,GATGAGAGCC,0.976
2,GATGATCTGC,1.04
3,GATGATTGAG,1
4,GATGATTGTG,0.986
5,GATGCATTTA,1.03
6,GATGCGTCTC,0.987
7,GATGCTTATA,0.98
8,GATGCTTTTG,1.01
9,GATGGACCCT,1.06
10,GATGGACGAA,0.965
11,GATGGCAGGT,1.02
12,GATGGCGTCG,0.974
13,GATGGGATAG,1.04
14,GATGGGGACC,1.03
15,GATGGGTAAC,1.04
16,GATGGGTCGC,0.971
17,GATGGGTCTT,0.973
18,GATGGTATAT,0.943
19,GATGGTCAAA,1
20,GATGGTTGGC,0.989
21,GATGGTTGTT,0.991
22,GATGGTTTCT,0.968
23,GATGTAAAGT,1.02
24,GATGTATTCC,1.06
25,GATGTATTGG,0.972

row,Sequence,switch fluorescence ratio
1,GATGTATTTC,0.95
2,GATGTCAGTA,0.971
3,GATGTCCTGA,0.97
4,GATGTTCGTA,1.02
5,GATTAAAGTA,1.01
6,GATTAAGGAT,1.02
7,GATTACAAAA,1.03
8,GATTACCCCA,1.04
9,GATTACTCTA,1.06
10,GATTATAGAC,1.01
11,GATTATGGGT,1.02
12,GATTATGTTG,0.911
13,GATTCACAGC,1.04
14,GATTCACCGC,1.28
15,GATTCCCAGG,4.28
16,GATTCCGTGC,1.42
17,GATTCGGGGC,0.958
18,GATTGAACCA,0.982
19,GATTGATCCC,1.01
20,GATTGCCCGA,1
21,GATTGCCTG,0.969
22,GATTGCGCTT,1.01
23,GATTGGATTC,1
24,GATTGGTCGC,1.07
25,GATTGTTGAC,1.03

row,Sequence,switch fluorescence ratio
1,GATTTACAAA,1.05
2,GATTTACTGC,0.985
3,GATTTATATG,1
4,GATTTATTAC,1.08
5,GATTTCAGC,0.998
6,GATTTCGACA,0.951
7,GATTTCGCTT,1.01
8,GATTTCTCAT,1.02
9,GATTTCTTCT,0.96
10,GATTTGGGCC,1.02
11,GATTTGTGA,1.04
12,GATTTTAAGC,1.01
13,GATTTTGAGT,0.959
14,GCAAACATGG,1.03
15,GCAAACTAAG,1.05
16,GCAAAGGGAT,1.02
17,GCAAATTCCT,1.05
18,GCAACAAGAA,1.02
19,GCAACGGCGT,1.06
20,GCAACTCAGA,1.02
21,GCAAGAATTA,1.01
22,GCAAGACGAG,1.43
23,GCAAGAGGTA,1.03
24,GCAAGGTTAC,1.33
25,GCAAGTACGC,1.58

row,Sequence,switch fluorescence ratio
1,GCAATAATGT,1.07
2,GCAATATGGC,1.43
3,GCAATGCGCG,1.31
4,GCAATGGGA,1.35
5,GCAATGTGTT,1.02
6,GCAATTAGGA,1.1
7,GCAATTTTGA,1.06
8,GCACACAGGG,1.16
9,GCACAGGGCG,1
10,GCACAGTTTT,1
11,GCACCAACGG,1.11
12,GCACCCGACA,1.15
13,GCACCCGAT,1.02
14,GCACCCGCGG,0.939
15,GCACCCGCTC,1.17
16,GCACCGCCGT,1.1
17,GCACCGGCTG,1.01
18,GCACCTCCGG,1.02
19,GCACCTTTGG,1.02
20,GCACGACAGT,1.03
21,GCACGCCCAT,1.22
22,GCACGCGTAC,2.84
23,GCACGCTCAC,1.64
24,GCACGGTAGG,1.08
25,GCACGGTCAC,1.31
